# In publication PMC4336329 (PLoS ONE, 2015):
# The campaign covered roughly 310,000 compounds. About 2,200 (0.71%) showed an effect of 50% or more. The effect is printed as a negative number. Some of the results follow.
# Target: human ether-à-go-go-related gene (hERG) potassium channel (human, UniProt Q12809)
# Test: primary screen, population patch clamp on CHO cells stably expressing hERG
# Chain of human ether-à-go-go-related gene (hERG) potassium channel (Q12809 whole entry, looked up): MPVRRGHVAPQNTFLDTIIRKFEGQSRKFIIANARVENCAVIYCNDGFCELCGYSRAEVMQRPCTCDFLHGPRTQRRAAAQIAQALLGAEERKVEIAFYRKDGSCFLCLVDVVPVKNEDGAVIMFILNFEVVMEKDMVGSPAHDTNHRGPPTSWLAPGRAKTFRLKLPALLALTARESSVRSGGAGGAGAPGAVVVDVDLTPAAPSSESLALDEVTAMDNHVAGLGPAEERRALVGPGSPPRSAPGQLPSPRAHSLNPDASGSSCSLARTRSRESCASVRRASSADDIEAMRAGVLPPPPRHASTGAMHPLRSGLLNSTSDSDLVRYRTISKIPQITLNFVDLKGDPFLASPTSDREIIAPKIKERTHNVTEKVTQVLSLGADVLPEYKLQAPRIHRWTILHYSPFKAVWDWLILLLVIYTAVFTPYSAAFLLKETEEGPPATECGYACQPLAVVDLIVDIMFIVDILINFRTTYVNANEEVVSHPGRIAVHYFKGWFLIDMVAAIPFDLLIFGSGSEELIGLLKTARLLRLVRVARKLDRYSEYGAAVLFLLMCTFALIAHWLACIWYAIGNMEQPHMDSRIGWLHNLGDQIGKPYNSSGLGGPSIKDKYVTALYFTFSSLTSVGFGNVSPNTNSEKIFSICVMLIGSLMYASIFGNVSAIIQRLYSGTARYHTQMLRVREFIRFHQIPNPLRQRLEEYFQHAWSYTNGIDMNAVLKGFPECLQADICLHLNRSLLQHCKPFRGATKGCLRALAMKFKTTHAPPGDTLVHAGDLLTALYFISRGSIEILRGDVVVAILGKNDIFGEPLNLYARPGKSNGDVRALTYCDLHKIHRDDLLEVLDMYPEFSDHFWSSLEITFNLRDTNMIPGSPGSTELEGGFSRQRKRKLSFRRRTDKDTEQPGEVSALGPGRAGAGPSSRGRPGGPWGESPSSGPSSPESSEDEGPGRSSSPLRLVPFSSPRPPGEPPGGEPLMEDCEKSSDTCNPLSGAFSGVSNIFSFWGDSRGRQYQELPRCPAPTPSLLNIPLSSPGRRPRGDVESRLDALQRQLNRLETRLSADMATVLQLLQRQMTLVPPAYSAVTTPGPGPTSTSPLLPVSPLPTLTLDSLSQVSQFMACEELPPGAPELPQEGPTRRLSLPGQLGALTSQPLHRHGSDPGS
row,Compound,"hERG current change (%, negative = inhibition) at 1uM"
1,CCOc1ccc(CN(C)C(=O)CNC(=O)Cc2cccc3ccccc23)cc1,12.9%
2,Cc1cc(C(=O)N/N=C/c2ccc(-c3cccc(Cl)c3Cl)o2)n[nH]1,11.3%
3,COC(=O)c1c(C)n(-c2ccc(OC)cc2)c2ccc(O)cc12,11.2%
4,Cc1cc(-n2nc(C)cc2C)nc(NS(=O)(=O)c2ccccc2)n1,14.2%
5,NC(Cc1ccc(Oc2ccc(O)cc2)cc1)C(=O)O (stereo not shown),7.98%
6,Cc1ccc(N(CC(=O)N2CCCC2)S(C)(=O)=O)cc1C,8.52%
7,CC(C)c1ccc(/C=C2\SC(N3CCCC3)=NC2=O)cc1,15.7%
8,COc1ccc(CCn2c(O)c(/C=N/N3CCOCC3)c(=O)[nH]c2=O)cc1OC,6.38%
9,Cc1cc(NC(=O)CSc2nnc(-c3ccncc3)n2C)n(-c2ccccc2)n1,7.94%
10,CCCOP(=O)(c1ccc(N(C)C)cc1)C(O)c1ccc(Cl)cc1Cl (stereo not shown),-0.951%
11,CN1CCN(C(=O)c2ccc(Cl)cc2)CC1,15.1%
12,O=S(N1CCc2ccccc21)C12CC3CC(CC(C3)C1)C2 (stereo not shown),3.28%
13,CCOc1cc(C=O)ccc1OCC(N)=O,9.52%
14,Cc1c(NC(=O)COc2cccc(Br)c2)c(=O)n(-c2ccccc2)n1C,4.12%
15,Cn1cnc2c(NCc3ccco3)ncnc21,10.1%
16,CC1CCCCN1S(=O)(=O)c1ccc2c(c1)CCN2C(=O)CCC(=O)O (stereo not shown),2.01%
17,CC(=O)N1CCN(C(=O)CCc2nnc(CCCCc3ccccc3)o2)CC1,9.94%
18,Cc1cc2ncn(C(=O)c3c(-c4c(Cl)cccc4Cl)noc3C)c2cc1C,6.72%
19,CNS(=O)(=O)c1ccc(-c2ccc(C=C3C(=O)NC(=O)NC3=O)o2)cc1,12.6%
20,O=C(CC1Sc2ccccc2NC1=O)OCC(=O)N1CCc2ccccc21 (stereo not shown),16.1%
21,Cc1ccc(CNc2cnn(C34CC5CC(CC(C5)C3)C4)c(=O)c2Cl)cc1,2.06%
22,CN(c1ccccc1C(=O)Nc1ccccc1-c1ccccc1)S(C)(=O)=O,16.6%

row,Compound,"hERG current change (%, negative = inhibition) at 1uM"
1,CCOC(=O)c1c(C)oc2c1c(C=NCCC(=O)O)c(O)c1ccccc12,14.3%
2,Nc1nnc(SCC(=O)N2CCN(c3ccccc3)CC2)s1,4.75%
3,Cc1ccc(C(=O)CCC(=O)O)cc1,9.95%
4,CC1(C)CC(=O)C=C(C(=O)NC2CCCc3c2cnn3-c2cc(F)cc(F)c2)O1 (stereo not shown),7.6%
5,CCCCn1c(CCNC(=O)CCC)nc2ccccc21,5.72%
6,CC(=O)NC(Cc1c[nH]c2ccccc12)C(=O)N1CCc2ccccc2C1 (stereo not shown),6.99%
7,NNC(=O)C1CC1c1ccc(Cl)cc1 (stereo not shown),9.29%
8,C[C@@H](C(=O)NC1CCN(Cc2ccccc2)CC1)N1C(=O)N2CCc3c([nH]c4ccccc34)[C@@]2(C)C1=O,-62.1%
9,O=C(COC(=O)COc1cccc(C(F)(F)F)c1)NC1CCCC1,11.8%
10,COc1ccccc1CNC(=O)COc1ccccc1C(=O)c1cnn(-c2ccccc2)c1,12.9%
11,CN(C)S(=O)(=O)N1CCN(C(=O)N(c2ccccc2)c2ccccc2)CC1,18.3%
12,COCCOC(=O)C1=C(C)Nc2cc(=O)[nH]c(=O)n2C1c1cccc([N+](=O)[O-])c1 (stereo not shown),19.9%
13,Cc1ccc(CN2CCC(c3cc(-c4ccc(Cl)cc4)n[nH]3)CC2)cc1,-78.1%
14,CC(NC(=O)Nc1ccccc1C(F)(F)F)C1CCCO1 (stereo not shown),18.4%
15,CCOC(=O)c1cccc(N2C(=O)C3C(C2=O)C2C=CC3C23CC3)c1 (stereo not shown),8.16%
16,CCC(C)C(NC(=O)c1ccccc1NC(=O)c1ccccc1)C(=O)N1CCOCC1 (stereo not shown),8.6%
17,O=C(c1ccc(Br)cc1)C12CN3CN(CN(C3)C1)C2,27.7%
18,O=C(CSc1nnc2scc(-c3ccc(Cl)cc3)n12)NCc1ccc2c(c1)OCO2,-0.194%
19,CCCn1nc(C(=O)NNC(=O)c2cccc(S(=O)(=O)NC(C)C)c2)c2ccccc2c1=O,7.97%
20,COCCn1c(SCC(=O)OCc2ccccc2)nc2c1c(=O)[nH]c(=O)n2C,-0.677%
21,O=C1CCC(C(=O)Nc2cccc(Oc3ccccc3)c2)=NN1,8.66%
22,CC(=O)Nc1ccc(C(=O)N/N=C/c2ccccc2OCc2ccccc2)cc1,15.9%

row,Compound,"hERG current change (%, negative = inhibition) at 1uM"
1,Cc1ccc(S(=O)(=O)NCCC(=O)NNC(=O)COc2ccc(Br)cc2)cc1C,5.62%
2,O=C(c1ccc(S(=O)(=O)N2CCCC2)cc1)N1CCN(c2ccccc2F)CC1,15.7%
3,O=C(CSc1nnc(-c2ccccc2F)o1)OCc1ccccc1,8.82%
4,Cc1ccc(-n2nc3c(c2NC(=O)/C=C\c2ccc4c(c2)OCO4)CSC3)cc1,13.5%
5,COC(=O)c1ccccc1NC(=O)CNC(=O)c1ccco1,11.6%
6,CC(CCc1ccccc1)NC(=O)CN1CCN(Cc2ccc(Cl)cc2)C1=O (stereo not shown),-10.1%
7,CC(=O)Nc1cc(C(F)(F)F)ccc1OCC1CCCO1 (stereo not shown),-0.903%
8,Cc1ccccc1C(=O)NNC(=O)C1CCN(C(=O)Nc2ccccc2)CC1,19.8%
9,Cc1ccccc1Nc1c(-c2ccncc2)nc2ccc(Br)cn12,4.55%
10,COC(=O)Cc1n[nH]c(=O)c2ccccc12,16%
11,COC(=O)c1ccc(NC(=O)CSCC(=O)OCC(=O)c2ccc(Br)cc2)cc1,6.29%
12,COc1ccccc1C(=O)Oc1cc(C)[nH]c(=O)c1[N+](=O)[O-],7.66%
13,Cc1cc(C)c(C#N)c(SCc2ccc(F)cc2)n1,13.1%
14,Cc1cc(=O)oc2c3c(cc(OCC(=O)NCC4CCC(C(=O)O)CC4)c12)OC(C)(C)CC3 (stereo not shown),-7.37%
15,Cc1cc(C)c(C)c(S(=O)(=O)N2CCN(C(=O)c3ccccn3)CC2)c1C,4.34%
16,CCSc1nnc(NC(=O)COc2cccc3ccccc23)s1,19.5%
17,Cc1ccc(OCc2nnc(SCC(=O)Nc3ccc4c(c3)OCCO4)n2Cc2ccco2)cc1,12.6%
18,CCc1nc(C)c(C#N)c2cc(OC)c(OC)cc12,7.54%
19,CC1CCCN(C(=O)CSc2nnc(-c3cccnc3)n2C2CCCCC2)C1 (stereo not shown),0.137%
20,CCOC(=O)N1CCN(CCC(=O)Nc2cc(C)ccc2OC)CC1.Cl,1.39%
21,COc1ccc(CCC(=O)NCCc2cnc[nH]2)cc1,13.2%
22,O=C(CN1C(=O)NC2(CCCC2)C1=O)N1CCN(S(=O)(=O)c2cccc(C(F)(F)F)c2)CC1,9.9%

row,Compound,"hERG current change (%, negative = inhibition) at 1uM"
1,CC1(C)CC(=O)C=C(Nc2cccc(C(F)(F)F)c2)C1,5.68%
2,C[C@@H](C(=O)Nc1ccc2ccccc2c1)[C@@H]1C[C@@]1(C)[C@@H](NC(=O)OCc1ccccc1)c1ccccc1,14.3%
3,CCCn1c(C)cc(/C=C(\C#N)C(=O)OCC(=O)NC(=O)NCC)c1C,4.57%
4,CN(Cc1cc2ccccc2[nH]c1=O)S(C)(=O)=O,7.56%
5,COc1ccccc1N1CCN(C(=O)c2cccc(S(=O)(=O)NCc3cccnc3)c2)CC1,10.1%
6,COc1cc(OC)cc(-c2c(-c3cccs3)c3cc(-c4ccc5[nH]ccc5c4)ccc3n2C)c1,15.2%
7,COc1ccc(C(=O)Nc2n[nH]c(-c3ccncc3)n2)cc1,5.91%
8,COc1ccccc1-c1ccc(=O)n(CC(=O)NC2CCc3ccccc32)n1 (stereo not shown),6.04%
9,Br.NC1CCc2cc(O)c(O)cc2C1 (stereo not shown),11.8%
10,COc1cc(/C=N/NC(=O)c2cc(-c3ccccc3Cl)nc3ccccc23)cc(OC)c1O,15.9%
11,COc1ccc(CCNC(=O)COC(=O)CNS(=O)(=O)c2ccc(SC)c([N+](=O)[O-])c2)cc1,9.76%
12,CCNc1nc(NC(C)C)nc(N(C#N)CCOc2ccc(Cl)cc2Cl)n1,7.93%
13,CCCC/S(CC1CC1(Cl)Cl)=N\S(=O)(=O)c1ccc(C)cc1 (stereo not shown),-1.13%
14,Nc1nc(Nc2ccccc2F)sc1C(=O)c1ccccc1,17.5%
15,CCOC(=O)C1=C(C)N=c2s/c(=C/c3ccc(OCC(=O)O)cc3)c(=O)n2C1c1cc(OC)c(OC)c(OC)c1 (stereo not shown),20.2%
16,N#Cc1ccc(N2Cc3ccccc3C2=NC(=O)c2cccs2)cc1,4.56%
17,CC(=O)N1CCN(S(=O)(=O)c2ccc(C)cc2)C1C(C)C (stereo not shown),4.5%
18,N#Cc1c(-c2ccc([N+](=O)[O-])cc2)nc2n(c1=O)CCS2,4.72%
19,Cc1cccc(CN2CCN(Cc3cccc(-n4cccn4)c3)CC2CCO)n1 (stereo not shown),-13.6%
20,COC(=O)c1cccc(NC(=S)Nc2ccc(Cl)c(Cl)c2)c1,17.5%
21,COc1cc(CN(C)CC2CCCN(CCc3ccc(F)cc3)C2)c(Cl)cc1O (stereo not shown),2.44%
22,COc1cc(NC(=O)c2cc(C)nc3ccccc23)cc(OC)c1OC,23.7%
